This passage reports binding results from publication PMC3602376.

These are yes or no findings as the source states them, for the method shown. Some entries that bind do so weakly or less than the wild type. For part of these data: Where a sequence is shown, tags or fusion partners need not be part of it.

Assay in all cases: two-hybrid; directed Y2H, ProQuest Two-Hybrid System (pDEST22, pDEST32); NF-YB or NF-YC constructs fused to DBD, bZIP proteins fused to AD; beta-galactosidase (X-Gal) reporter, similar activation seen for two other reporters
The target of assay [1] is T1, NF-YC9, full length (Arabidopsis thaliana (Col-0 cDNA)) (UniProt Q8L4B2).
T1 sequence: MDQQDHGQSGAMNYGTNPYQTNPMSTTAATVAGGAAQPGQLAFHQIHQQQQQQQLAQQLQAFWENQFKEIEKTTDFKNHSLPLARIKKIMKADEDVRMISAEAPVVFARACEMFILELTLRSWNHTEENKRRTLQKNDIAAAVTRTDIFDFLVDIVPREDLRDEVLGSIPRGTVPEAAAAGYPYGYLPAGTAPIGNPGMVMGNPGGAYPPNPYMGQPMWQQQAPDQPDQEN

Assay [2] has as its target T2, NF-YB2 (NUCLEAR FACTOR Y, subunit B2), full length (Arabidopsis thaliana (Col-0 cDNA)) (UniProt Q9FGJ3).
T2 sequence: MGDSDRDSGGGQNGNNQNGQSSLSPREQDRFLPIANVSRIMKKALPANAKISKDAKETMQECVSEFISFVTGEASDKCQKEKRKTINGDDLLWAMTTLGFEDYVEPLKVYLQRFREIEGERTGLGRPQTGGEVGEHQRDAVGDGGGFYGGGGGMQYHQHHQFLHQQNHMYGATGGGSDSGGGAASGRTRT

For assay [3], the target named is T3, NF-YB1 (Arabidopsis thaliana) (UniProt Q9SLG0).
T3 sequence: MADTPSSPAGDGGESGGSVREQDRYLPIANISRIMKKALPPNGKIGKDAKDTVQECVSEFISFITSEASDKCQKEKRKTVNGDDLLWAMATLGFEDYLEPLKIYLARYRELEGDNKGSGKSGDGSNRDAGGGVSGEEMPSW

Assay [4] has as its target T4, NF-YB3, full length (Arabidopsis thaliana (Col-0 cDNA)) (UniProt O23310).
T4 sequence: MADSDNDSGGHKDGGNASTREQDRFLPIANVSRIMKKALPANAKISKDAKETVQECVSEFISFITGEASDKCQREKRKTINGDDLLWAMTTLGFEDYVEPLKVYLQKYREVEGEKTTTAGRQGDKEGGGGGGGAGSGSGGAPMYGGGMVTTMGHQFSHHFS

In assay [5] the target is T5, NF-YC4, full length (Arabidopsis thaliana (Col-0 cDNA)) (UniProt Q9FMV5).
T5 sequence: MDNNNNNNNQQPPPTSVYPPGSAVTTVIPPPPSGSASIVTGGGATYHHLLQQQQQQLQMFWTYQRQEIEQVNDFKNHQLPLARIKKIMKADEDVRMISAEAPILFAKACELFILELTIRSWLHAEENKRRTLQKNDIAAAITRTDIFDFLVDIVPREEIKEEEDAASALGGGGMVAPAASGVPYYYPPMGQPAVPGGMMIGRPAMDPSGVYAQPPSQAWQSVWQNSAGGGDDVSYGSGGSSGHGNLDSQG

Assay [6] concerns the target T6, NF-YB2 C-terminal region (B2C, AA 122–190) (Arabidopsis thaliana (Col-0 cDNA)) (UniProt Q9FGJ3).
T6 sequence: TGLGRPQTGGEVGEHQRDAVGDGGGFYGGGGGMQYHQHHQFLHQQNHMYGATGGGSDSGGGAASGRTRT

Assay [7] addresses T7, NF-YB2 conserved histone fold motif (B2HFM, AA 26–121) (Arabidopsis thaliana (Col-0 cDNA)) (UniProt Q9FGJ3).
T7 sequence: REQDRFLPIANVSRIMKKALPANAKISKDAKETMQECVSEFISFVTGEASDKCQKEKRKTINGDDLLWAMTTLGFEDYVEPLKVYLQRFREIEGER

Assay [8] addresses T8, NF-YB2 N-terminal region (B2N, AA 1–25) (Arabidopsis thaliana (Col-0 cDNA)) (UniProt Q9FGJ3).
T8 sequence: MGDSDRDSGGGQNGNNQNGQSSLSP

Assay [9] has as its target T9, NF-YC4, full length (Arabidopsis thaliana (Col-0 cDNA)), Q9FMV5.
T9 chain: T5 sequence
Particulars: remark: other sources report otherwise.

B1: ABA BINDING FACTOR 1 (ABF1), full length (protein, UniProt Q9M7Q5 1-392)
chain: MGTHIDINNLGGDTSRGNESKPLARQSSLYSLTFDELQSTLGEPGKDFGSMNMDELLKNIWTAEDTQAFMTTTSSVAAPGPSGFVPGGNGLQRQGSLTLPRTLSQKTVDEVWKYLNSKEGSNGNTGTDALERQQTLGEMTLEDFLLRAGVVKEDNTQQNENSSSGFYANNGAAGLEFGFGQPNQNSISFNGNNSSMIMNQAPGLGLKVGGTMQQQQQPHQQQLQQPHQRLPPTIFPKQANVTFAAPVNMVNRGLFETSADGPANSNMGGAGGTVTATSPGTSSAENNTWSSPVPYVFGRGRRSNTGLEKVVERRQKRMIKNRESAARSRARKQAYTLELEAEIESLKLVNQDLQKKQAEIMKTHNSELKEFSKQPPLLAKRQCLRRTLTGPW
With B1, the binding result in assay [1] is listed as “binds”; in assay [2] it was “no binding”; in assay [3], “no binding”; in [4], “no binding”; in assay [5], “binds”.

B2: ABA BINDING FACTOR 3 (ABF3), full length (protein, UniProt Q9M7Q3 1-454)
chain: MGSRLNFKSFVDGVSEQQPTVGTSLPLTRQNSVFSLTFDEFQNSWGGGIGKDFGSMNMDELLKNIWTAEESHSMMGNNTSYTNISNGNSGNTVINGGGNNIGGLAVGVGGESGGFFTGGSLQRQGSLTLPRTISQKRVDDVWKELMKEDDIGNGVVNGGTSGIPQRQQTLGEMTLEEFLVRAGVVREEPQPVESVTNFNGGFYGFGSNGGLGTASNGFVANQPQDLSGNGVAVRQDLLTAQTQPLQMQQPQMVQQPQMVQQPQQLIQTQERPFPKQTTIAFSNTVDVVNRSQPATQCQEVKPSILGIHNHPMNNNLLQAVDFKTGVTVAAVSPGSQMSPDLTPKSALDASLSPVPYMFGRVRKTGAVLEKVIERRQKRMIKNRESAARSRARKQAYTMELEAEIAQLKELNEELQKKQVEIMEKQKNQLLEPLRQPWGMGCKRQCLRRTLTGPW
On to B2, for which the binding entry in [1] is given as “binds”; in [6], “no binding”; in assay [2], “binds”; in assay [3], “no binding”; in assay [7], “no binding”; in assay [8], “no binding”. Further, the values for the binding entry in [4] and in assay [5] were “no binding” and “binds”, respectively.

B3: ELONGATED HYPOCOTYL 5 (HY5), full length, O24646 1-168 (protein)
chain: MQEQATSSLAASSLPSSSERSSSSAPHLEIKEGIESDEEIRRVPEFGGEAVGKETSGRESGSATGQERTQATVGESQRKRGRTPAEKENKRLKRLLRNRVSAQQARERKKAYLSELENRVKDLENKNSELEERLSTLQNENQMLRHILKNTTGNKRGGGGGSNADASL
Turning to B3, the binding entry in assay [9] is “binds”.

B4: ABA BINDING FACTOR 4 (ABF4), full length (protein, UniProt Q9M7Q2 1-431)
chain: MGTHINFNNLGGGGHPGGEGSSNQMKPTGSVMPLARQSSVYSLTFDELQNTLGGPGKDFGSMNMDELLKSIWTAEEAQAMAMTSAPAATAVAQPGAGIPPPGGNLQRQGSLTLPRTISQKTVDEVWKCLITKDGNMEGSSGGGGESNVPPGRQQTLGEMTLEEFLFRAGVVREDNCVQQMGQVNGNNNNGFYGNSTAAGGLGFGFGQPNQNSITFNGTNDSMILNQPPGLGLKMGGTMQQQQQQQQLLQQQQQQMQQLNQPHPQQRLPQTIFPKQANVAFSAPVNITNKGFAGAANNSINNNNGLASYGGTGVTVAATSPGTSSAENNSLSPVPYVLNRGRRSNTGLEKVIERRQRRMIKNRESAARSRARKQAYTLELEAEIEKLKKTNQELQKKQAEMVEMQKNELKETSKRPWGSKRQCLRRTLTGPW
In the case of B4, the binding result was “binds” in assay [1]; “no binding” in assay [2]; “no binding” in [3]; “no binding” in [4]; “binds” in [5].

B5: ABA BINDING FACTOR 2 (ABF2), full length (protein, UniProt Q9M7Q4 1-416)
chain: MDGSMNLGNEPPGDGGGGGGLTRQGSIYSLTFDEFQSSVGKDFGSMNMDELLKNIWSAEETQAMASGVVPVLGGGQEGLQLQRQGSLTLPRTLSQKTVDQVWKDLSKVGSSGVGGSNLSQVAQAQSQSQSQRQQTLGEVTLEEFLVRAGVVREEAQVAARAQIAENNKGGYFGNDANTGFSVEFQQPSPRVVAAGVMGNLGAETANSLQVQGSSLPLNVNGARTTYQQSQQQQPIMPKQPGFGYGTQMGQLNSPGIRGGGLVGLGDQSLTNNVGFVQGASAAIPGALGVGAVSPVTPLSSEGIGKSNGDSSSLSPSPYMFNGGVRGRKSGTVEKVVERRQRRMIKNRESAARSRARKQAYTVELEAEVAKLKEENDELQRKQARIMEMQKNQETEMRNLLQGGPKKKLRRTESGPW
On to B5, for which the binding result in assay [1] is on record as “binds”; in [2], “no binding”; in assay [3], “no binding”; in assay [4], “no binding”; in assay [5], “binds”.
